Reference: paper PMC6484760
No constants are given. Whether binding was seen depends on the method and setting. For some of these results: In cells and extracts the contact can be indirect. Some results given as binding are weak or reduced against the parent protein; the word gives no strength. For some of these results: Sequences can lack the tags named with a protein. Values belong to the molecule of their own block, whether it stands above or below them.

Sequences of proteins named here, by UniProt entry; tags and fusion partners are left off. Residues count along the entry.
UniProt Q09472: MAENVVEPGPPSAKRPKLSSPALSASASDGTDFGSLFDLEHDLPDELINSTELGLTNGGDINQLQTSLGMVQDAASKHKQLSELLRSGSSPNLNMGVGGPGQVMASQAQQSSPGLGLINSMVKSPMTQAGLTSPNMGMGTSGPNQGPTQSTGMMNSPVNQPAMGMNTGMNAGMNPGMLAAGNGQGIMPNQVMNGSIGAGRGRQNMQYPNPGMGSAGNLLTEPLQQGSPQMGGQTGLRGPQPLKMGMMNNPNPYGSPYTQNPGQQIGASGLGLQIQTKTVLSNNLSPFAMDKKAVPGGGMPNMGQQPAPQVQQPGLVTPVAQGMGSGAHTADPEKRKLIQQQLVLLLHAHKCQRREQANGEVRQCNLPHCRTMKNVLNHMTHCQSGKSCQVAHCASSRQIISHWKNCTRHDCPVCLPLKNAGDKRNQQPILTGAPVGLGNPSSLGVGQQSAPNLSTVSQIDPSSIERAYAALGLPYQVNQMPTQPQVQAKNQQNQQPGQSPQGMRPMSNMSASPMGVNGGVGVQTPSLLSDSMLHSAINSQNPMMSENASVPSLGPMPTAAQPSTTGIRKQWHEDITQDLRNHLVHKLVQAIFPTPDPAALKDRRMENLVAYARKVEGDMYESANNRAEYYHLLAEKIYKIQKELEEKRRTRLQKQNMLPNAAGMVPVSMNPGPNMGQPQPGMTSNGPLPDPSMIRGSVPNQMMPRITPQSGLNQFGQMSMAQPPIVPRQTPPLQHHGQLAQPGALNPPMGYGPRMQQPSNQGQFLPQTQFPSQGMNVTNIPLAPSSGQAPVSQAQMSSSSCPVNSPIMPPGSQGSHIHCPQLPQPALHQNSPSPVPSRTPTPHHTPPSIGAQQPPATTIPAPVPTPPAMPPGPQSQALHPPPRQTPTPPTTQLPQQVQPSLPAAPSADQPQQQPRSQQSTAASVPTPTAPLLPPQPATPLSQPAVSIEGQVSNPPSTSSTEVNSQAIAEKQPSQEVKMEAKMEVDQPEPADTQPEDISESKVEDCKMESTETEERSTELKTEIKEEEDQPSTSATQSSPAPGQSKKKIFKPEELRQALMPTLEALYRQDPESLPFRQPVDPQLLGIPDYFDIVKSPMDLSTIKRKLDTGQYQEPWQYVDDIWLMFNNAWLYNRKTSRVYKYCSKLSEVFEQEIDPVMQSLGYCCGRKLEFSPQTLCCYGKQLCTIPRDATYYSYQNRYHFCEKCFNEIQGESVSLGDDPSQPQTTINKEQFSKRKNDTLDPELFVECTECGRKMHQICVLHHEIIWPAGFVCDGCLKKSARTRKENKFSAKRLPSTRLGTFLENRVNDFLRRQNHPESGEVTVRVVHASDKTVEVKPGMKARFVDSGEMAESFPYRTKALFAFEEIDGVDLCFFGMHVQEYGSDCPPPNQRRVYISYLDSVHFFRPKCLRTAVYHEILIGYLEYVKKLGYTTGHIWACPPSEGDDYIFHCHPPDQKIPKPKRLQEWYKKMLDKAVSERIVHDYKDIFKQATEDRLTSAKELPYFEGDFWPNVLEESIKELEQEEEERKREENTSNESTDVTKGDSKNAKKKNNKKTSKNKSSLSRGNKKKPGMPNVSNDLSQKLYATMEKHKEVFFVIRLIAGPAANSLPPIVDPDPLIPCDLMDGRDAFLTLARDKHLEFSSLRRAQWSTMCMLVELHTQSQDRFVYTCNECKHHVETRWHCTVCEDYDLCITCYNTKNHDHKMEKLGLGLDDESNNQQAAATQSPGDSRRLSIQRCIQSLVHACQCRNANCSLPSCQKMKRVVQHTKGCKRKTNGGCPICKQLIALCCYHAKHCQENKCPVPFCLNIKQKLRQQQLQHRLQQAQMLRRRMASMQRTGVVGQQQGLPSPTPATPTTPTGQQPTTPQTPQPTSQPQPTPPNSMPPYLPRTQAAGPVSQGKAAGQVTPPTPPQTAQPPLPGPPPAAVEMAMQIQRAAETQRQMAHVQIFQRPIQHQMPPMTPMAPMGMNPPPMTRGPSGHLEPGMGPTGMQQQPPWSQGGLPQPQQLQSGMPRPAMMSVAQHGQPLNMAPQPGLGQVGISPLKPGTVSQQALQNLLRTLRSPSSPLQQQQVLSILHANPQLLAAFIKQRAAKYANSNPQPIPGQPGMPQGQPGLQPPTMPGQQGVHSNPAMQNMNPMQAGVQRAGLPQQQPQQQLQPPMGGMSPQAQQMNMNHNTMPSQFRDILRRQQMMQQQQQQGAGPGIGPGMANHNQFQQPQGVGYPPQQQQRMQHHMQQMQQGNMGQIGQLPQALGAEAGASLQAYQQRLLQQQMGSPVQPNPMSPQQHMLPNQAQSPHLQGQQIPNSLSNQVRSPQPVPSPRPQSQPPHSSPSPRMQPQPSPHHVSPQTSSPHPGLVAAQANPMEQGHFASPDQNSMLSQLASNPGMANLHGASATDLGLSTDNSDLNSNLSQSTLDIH
UniProt Q9NPF5: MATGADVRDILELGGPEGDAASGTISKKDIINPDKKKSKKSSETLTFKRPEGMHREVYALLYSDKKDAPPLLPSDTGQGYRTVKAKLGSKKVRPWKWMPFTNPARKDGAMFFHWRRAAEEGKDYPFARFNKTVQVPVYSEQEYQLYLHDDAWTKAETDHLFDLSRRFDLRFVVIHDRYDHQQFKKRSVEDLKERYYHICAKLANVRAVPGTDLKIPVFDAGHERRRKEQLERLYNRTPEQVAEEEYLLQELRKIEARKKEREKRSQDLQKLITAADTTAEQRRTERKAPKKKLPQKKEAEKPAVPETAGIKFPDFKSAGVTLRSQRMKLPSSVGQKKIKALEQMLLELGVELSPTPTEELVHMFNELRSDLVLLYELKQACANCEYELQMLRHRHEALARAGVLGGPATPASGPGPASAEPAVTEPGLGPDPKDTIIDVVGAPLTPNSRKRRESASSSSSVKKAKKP
UniProt P19883, residues 30-344: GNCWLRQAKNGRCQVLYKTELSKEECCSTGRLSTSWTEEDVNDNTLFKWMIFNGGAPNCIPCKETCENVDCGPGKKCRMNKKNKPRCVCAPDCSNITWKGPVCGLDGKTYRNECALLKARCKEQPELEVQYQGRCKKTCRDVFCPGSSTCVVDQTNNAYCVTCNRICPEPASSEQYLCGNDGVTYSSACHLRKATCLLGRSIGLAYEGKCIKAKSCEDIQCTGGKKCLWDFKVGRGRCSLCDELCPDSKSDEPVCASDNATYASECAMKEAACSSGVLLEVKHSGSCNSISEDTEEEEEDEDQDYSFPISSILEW
UniProt Q13705, residues 19-512: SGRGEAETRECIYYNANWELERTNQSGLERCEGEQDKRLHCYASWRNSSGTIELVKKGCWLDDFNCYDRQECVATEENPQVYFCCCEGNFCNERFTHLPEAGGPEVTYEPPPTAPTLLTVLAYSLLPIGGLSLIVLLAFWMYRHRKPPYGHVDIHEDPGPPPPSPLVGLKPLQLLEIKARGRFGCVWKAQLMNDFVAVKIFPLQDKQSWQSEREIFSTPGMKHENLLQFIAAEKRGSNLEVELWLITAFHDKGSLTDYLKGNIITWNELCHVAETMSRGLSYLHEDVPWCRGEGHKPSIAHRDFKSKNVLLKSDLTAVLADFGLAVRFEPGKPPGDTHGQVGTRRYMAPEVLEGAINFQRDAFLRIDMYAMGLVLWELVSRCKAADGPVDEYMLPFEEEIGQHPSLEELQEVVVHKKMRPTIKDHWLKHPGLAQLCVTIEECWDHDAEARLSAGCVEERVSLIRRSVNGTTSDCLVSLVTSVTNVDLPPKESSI
UniProt Q92769: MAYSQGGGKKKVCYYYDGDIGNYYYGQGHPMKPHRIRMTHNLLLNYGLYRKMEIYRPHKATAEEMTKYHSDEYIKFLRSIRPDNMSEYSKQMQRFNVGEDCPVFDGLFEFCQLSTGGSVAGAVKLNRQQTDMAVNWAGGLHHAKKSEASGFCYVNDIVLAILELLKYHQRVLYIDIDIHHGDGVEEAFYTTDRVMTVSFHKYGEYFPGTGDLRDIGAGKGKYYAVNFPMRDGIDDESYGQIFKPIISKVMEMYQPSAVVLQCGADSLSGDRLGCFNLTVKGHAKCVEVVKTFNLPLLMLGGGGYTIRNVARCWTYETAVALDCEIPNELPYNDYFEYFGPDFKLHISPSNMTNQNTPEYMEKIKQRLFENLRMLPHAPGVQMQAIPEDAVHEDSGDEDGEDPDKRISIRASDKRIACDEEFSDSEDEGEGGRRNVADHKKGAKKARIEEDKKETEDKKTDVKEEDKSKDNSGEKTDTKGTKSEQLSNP

Key:
[1] = target: T1, Fstl1 (follistatin-like protein 1) in GBM cells (human (endogenous in GBM cells)) (UniProt Q12841); assay: co-IP; co-IP of Fstl1 and partners from GBM cells (Supplementary Figs. 9 and 10), Co-IP kit (Thermo Scientific); details in the Supplementary Material
T1 sequence: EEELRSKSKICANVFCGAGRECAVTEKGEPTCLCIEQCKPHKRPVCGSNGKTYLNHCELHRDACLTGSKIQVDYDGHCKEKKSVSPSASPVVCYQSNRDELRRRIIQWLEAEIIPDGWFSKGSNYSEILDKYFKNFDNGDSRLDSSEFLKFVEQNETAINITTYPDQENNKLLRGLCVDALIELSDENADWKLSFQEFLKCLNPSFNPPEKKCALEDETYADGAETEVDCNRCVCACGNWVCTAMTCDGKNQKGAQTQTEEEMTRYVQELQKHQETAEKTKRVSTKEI

[2] = target: T2, FLAG-Fstl1 (follistatin-like protein 1), immobilized fusion protein (UniProt Q12841); assay: pull-down; FLAG fusion protein immobilized on anti-FLAG M2 agarose beads, incubated with D54 whole-cell extract; binding buffer 25 mM HEPES pH 7.9, 150 mM NaCl, 0.5 mM EDTA, 10% glycerol, 0.1% Triton X-100, 0.1 mg/ml BSA, 1 mM DTT; 2 h at 4 °C; western blot; only the target purified
T2 sequence: T1 sequence

[3] = target: T3, flag-Fstl1 expressed in D54 cells (UniProt Q12841); assay: co-IP; total, membrane, cytoplasmic and nuclear extracts of D54 cells transfected with flag-Fstl1; anti-flag antibody
T3 sequence: T1 sequence

[4] = target: DIP2A expressed from DIP2A expression constructs in D54 cells (size-exclusion chromatography) (UniProt Q14689); assay: SEC; 5 mg total protein of lysate from D54 cells transfected with DIP2A; Superose 6 Increase 10/300, phosphate-buffered saline, 0.5 ml/min; 500 μl fractions immunoblotted
[5] = target: DIP2A (disco-interacting protein 2 homolog A), endogenous in GBM cells (human (endogenous in D54 and other GBM cells)) (UniProt Q14689); assay: co-IP; endogenous proteins; D54 cell lysate with anti-DIP2A or IgG, nuclear extracts of GBM cells with anti-HDAC2 or IgG; also cells transfected with Fstl1 or vector (D54), shFstl1-7 or shCtrl (05MG)
[6] = target: FLAG-tagged wild-type DIP2A (WT), expressed in D54 cells (UniProt Q14689); assay: co-IP; D54 cells transfected with flag-DIP2A, flag-A-DIP2A or flag-B-DIP2A, 48 h after transfection
[7] = target: T4, FLAG-B-DIP2A, the posterior portion of DIP2A spanning amino acids 124-1571, expressed in D54 cells (UniProt Q14689); assay: as above
T4 sequence: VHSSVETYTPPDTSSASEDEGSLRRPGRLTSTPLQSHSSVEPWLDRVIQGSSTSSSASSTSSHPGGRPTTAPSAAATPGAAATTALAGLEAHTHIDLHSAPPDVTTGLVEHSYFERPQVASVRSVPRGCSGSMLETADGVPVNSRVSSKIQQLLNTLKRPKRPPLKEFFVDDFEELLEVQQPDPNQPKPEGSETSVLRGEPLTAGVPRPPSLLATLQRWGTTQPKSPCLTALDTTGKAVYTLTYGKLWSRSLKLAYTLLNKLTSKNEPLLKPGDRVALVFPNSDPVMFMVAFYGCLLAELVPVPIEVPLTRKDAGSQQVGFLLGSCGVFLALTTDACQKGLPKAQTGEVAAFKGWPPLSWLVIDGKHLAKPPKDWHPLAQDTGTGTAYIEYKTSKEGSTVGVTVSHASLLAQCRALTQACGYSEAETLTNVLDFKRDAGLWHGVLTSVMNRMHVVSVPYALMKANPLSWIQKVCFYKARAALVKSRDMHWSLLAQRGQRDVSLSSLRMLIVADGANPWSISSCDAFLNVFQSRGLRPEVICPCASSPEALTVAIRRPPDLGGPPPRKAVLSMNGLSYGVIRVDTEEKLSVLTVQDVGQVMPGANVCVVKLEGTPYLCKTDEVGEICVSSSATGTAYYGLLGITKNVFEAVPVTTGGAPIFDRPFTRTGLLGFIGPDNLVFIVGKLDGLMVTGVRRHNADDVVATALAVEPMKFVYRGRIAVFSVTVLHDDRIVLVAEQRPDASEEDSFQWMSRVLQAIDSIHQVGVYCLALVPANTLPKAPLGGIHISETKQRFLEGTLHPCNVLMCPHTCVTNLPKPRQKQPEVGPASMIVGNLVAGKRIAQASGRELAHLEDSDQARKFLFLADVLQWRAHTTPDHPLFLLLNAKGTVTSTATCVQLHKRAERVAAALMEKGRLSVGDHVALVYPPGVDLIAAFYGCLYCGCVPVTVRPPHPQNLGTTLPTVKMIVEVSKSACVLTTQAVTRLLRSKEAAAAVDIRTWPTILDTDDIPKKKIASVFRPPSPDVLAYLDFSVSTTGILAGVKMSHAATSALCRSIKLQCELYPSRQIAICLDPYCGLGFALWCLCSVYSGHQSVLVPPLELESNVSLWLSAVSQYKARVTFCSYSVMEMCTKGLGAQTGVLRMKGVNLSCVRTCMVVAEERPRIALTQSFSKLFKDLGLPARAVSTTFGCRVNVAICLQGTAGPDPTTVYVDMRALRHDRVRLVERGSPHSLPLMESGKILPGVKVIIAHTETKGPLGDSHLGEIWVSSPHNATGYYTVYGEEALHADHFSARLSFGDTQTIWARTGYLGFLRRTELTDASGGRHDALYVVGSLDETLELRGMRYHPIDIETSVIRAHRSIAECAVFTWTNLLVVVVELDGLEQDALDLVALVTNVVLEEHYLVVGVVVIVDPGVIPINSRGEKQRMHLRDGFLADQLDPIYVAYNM

[8] = target: T5, FLAG-A-DIP2A, the DMAP1-binding domain spanning the first 150 amino acids of DIP2A, expressed in D54 cells (UniProt Q14689); assay: as above
T5 sequence: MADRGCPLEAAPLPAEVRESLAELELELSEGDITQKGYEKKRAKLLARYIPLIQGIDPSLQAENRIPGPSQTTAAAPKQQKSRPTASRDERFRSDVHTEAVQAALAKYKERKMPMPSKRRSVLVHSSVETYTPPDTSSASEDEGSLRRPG

[9] = target: p300 in GBM cells (human (endogenous in GBM cells)) (UniProt Q09472); assay: co-IP; co-IP of Fstl1 and partners from GBM cells (Supplementary Figs. 9 and 10), Co-IP kit (Thermo Scientific); details in the Supplementary Material

Molecule: DMAP1 (DNA methyltransferase 1-associated protein 1), endogenous in GBM cells (from UniProt Q9NPF5 1-467)
binding [4]: binds | binding [5]: binds | binding [6]: binds

Molecule: follistatin in GBM cells (from UniProt P19883 30-344)
binding [1]: binds | binding [2]: binds

B1: Fstl1 (follistatin-like protein 1) in GBM cells (protein, UniProt Q12841 21-308)
chain: T1 sequence
binding [9]: no binding

B2: CD14 in GBM cells (protein, UniProt P08571 20-345)
chain: TTPEPCELDDEDFRCVCNFSEPQPDWSEAFQCVSAVEVEIHAGGLNLEPFLKRVDADADPRQYADTVKALRVRRLTVGAAQVPAQLLVGALRVLAYSRLKELTLEDLKITGTMPPLPLEATGLALSSLRLRNVSWATGRSWLAELQQWLKPGLKVLSIAQAHSPAFSCEQVRAFPALTSLDLSDNPGLGERGLMAALCPHKFPAIQNLALRNTGMETPTGVCAALAAAGVQPHSLDLSHNSLRATVNPSAPRCMWSSALNSLNLSFAGLEQVPKGLPAKLRVLDLSCNRLNRAPQPDELPEVDNLTLDGNPFLVPGTALPHEGSMN
binding [1]: binds | binding [2]: binds

More lines, now with the values ahead:

binding [1]: binds | binding [2]: binds
Molecule: ActR-IIB in GBM cells (from UniProt Q13705 19-512) (receptor)

binding [1]: binds | binding [3]: binds | binding [2]: binds
Molecule: DIP2A (disco-interacting protein 2 homolog A), endogenous in GBM cells (from UniProt Q14689 1-1571)

binding [7]: no binding | binding [8]: no binding
Molecule: HDAC2 (histone deacetylase 2), endogenous in GBM cells (from UniProt Q92769 1-488) (enzyme)

binding [1]: no binding
Molecule: p300 in GBM cells (from UniProt Q09472 1-2414)
